# Assay results taken from the supplement of paper PMC12632987.
# In all, about 1,800 sequences were measured (“median log2 fold change of GCK-ALFA target abundance (FLAG IP / Myc IP barcode read proportion)”: median about 0.14, lowest 2% from about -0.84 on). This is one part of the list.
# T1: TRAF2, Q12933
# T1 chain: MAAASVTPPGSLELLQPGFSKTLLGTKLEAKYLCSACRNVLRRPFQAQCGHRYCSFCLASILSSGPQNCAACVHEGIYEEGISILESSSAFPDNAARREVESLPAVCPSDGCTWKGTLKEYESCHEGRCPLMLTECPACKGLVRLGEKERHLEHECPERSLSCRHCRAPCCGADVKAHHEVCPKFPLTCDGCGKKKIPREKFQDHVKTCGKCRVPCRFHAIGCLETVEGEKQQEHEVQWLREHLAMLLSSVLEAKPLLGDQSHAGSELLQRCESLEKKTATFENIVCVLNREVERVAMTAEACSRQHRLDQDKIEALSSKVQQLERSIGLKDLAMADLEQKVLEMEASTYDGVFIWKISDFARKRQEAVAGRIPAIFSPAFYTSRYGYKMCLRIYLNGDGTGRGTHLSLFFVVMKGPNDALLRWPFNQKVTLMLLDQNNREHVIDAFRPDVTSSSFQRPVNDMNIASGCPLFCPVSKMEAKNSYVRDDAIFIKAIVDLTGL
# B1: traf2_out_11_169_782 (protein)
# chain: KEKEFNRKLNDFALEQNDEAKEKLKEFALKLAEEEGLDVEEIKAIFEANKGKSLSAIASALIDYYRSKGREDAAEEVLEKYEELKEEINKKVTEKIKELE
# B2: traf2_out_15_181_1334 (protein)
# chain: MTPEEKAAKVAELKKQIEEKKAEAEKYLKEADAVKDTDLTDALVYYSEAKRKYLEIAELYRKIAELTGDEATYAKKIEEAEKKAEELNKKMNEIYKKIEA
# B3: traf2_out_20_3_2235 (protein)
# chain: EELKEKLKEELKRAEKLLEEIAPRLPPEDAARLRALLEEAKKYFEKDYKDALVELSALRRAALEAAERARAAGDEETAALLEELADEVNKAMHYAYKIIE
# B4: traf2_out_20_154_1995 (protein)
# chain: PSDEEIDEVSDKLVEASAKRRAALIAIEMLKNPERREEILAEAREHYKNDEVMMAALDEAVAAIEAGATLEEFEAKAEEYQKKAEELGDKLEELLAERRA
# B5: traf2_out_20_3_2093 (protein)
# chain: EELLEELRRALERAEKLLKEAIELADPETAARLKELLARLKEARELPLEDQLVALSEVRRELLRLAEEARAAGREELAKLLEEAAEEVNRAMNLAYKIIE
# B6: traf2_out_15_48_1353 (protein)
# chain: ETKKLRETARKVNDLFDATLDAVAEELRALLPELPPELRPLAEAAIREATVRGSINDTIALLDEAIARADPETAARLQALRDRLLATKKEASKLMNETLK
# B7: traf2_out_14_166_1281 (protein)
# chain: MTEEEIERIKEIVDKLEPLNDAAVARAAAIIEANRDKLSPEDLARLNHLLDIARRNIGSSAINAFLQMAEIFAAAGLEEAAAAFRALAEELQAKLSELNK
# B8: traf2_out_20_3_2052 (protein)
# chain: EELLEEAEKLRKELEEKIEEIKKLVPPEDAKELEELLKRVEEARKKGLEEELVALSELRRRLLELAERARAEGREEVAELLEEAAELVQKLMNVVYKIIE
# B9: traf2_out_1_158_924 (protein)
# chain: DSLNNLILSVVRLIGEFAVDNALERGDEELAEKLREFSEEVEKLVKKLLVEEKKSVEELIEKIREIGERFKEGQDPETAEAIERTSRQIISGIRQAAKLH
# B10: traf2_out_18_167_1833 (protein)
# chain: EEEIEKKKNELSDEMVKASERRRAALAVLVALDRDPEAEAAALARLRAVTADDPEVQAELAALETLPPEERRAALRAFAERLAEREQKKLNELYKEYESL
# B11: traf2_out_1_158_910 (protein)
# chain: STDVGLLASSVTAVLDVWAEEARERGLEEAAALFEELRKEVLELYEENKDISLEEFAEKVLELVDRWEERAKALSPEERAAVERAFRQIRSAVEQVVKLA
# B12: traf2_out_18_3_1946 (protein)
# chain: SEEERKKYSEKLDEVFDDTGAEILARARALVAEDPRFQPALDAIEAIAARGPRPATMANTLIDALRALGYEEEAAAVEEYYSEKAKEASELIKKYEEAIK
# B13: traf2_out_6_156_2454 (protein)
# chain: SLEEILKEAKEKIKKEIEELSKASEEKKISYISKIAGAAYRALQKAREAGASLEELKKFAEELKKTAKEEAEKAGLDEDTKNLLLSSLNAVFDVALEEAK
# B14: traf2_out_11_169_865 (protein)
# chain: EEEEKNRKLIDFALEVEDKAKEELKKFALELAKEAGLDVAEVEAIFEANKNSSLSAVAAALIEYFKSKGKEEEAEKILKKHDELKEKINKEVSEKIKELE
# B15: traf2_out_6_156_2404 (protein)
# chain: KVEEILEKALKEIEELVKKLSEASEEKKISYISKIAGTFYRALQELREAGASVEELKEFGEKVNKKLKELLDKYKLPEDIKNLILSSINAVFDVALAEAK
# B16: traf2_out_17_162_1634 (protein)
# chain: AEVEERRERLERRLEELEKRLKELREKLKEIDKKSKEELTDLIVEASELKREALLLIQEIEALEGEIPPEERERLLRRAEEIAEEAQRIANAFYKKLEEL
# B17: traf2_out_20_38_2041 (protein)
# chain: SPEEEERRQIEEDVRLANEALDEAEAKLAEWQAKGLSLDEIAEKVKEEIKKAFEEAGLEDLVPEYLEKIDLVKDSPDALRLITRILARALTKVRRKKREK
# B18: traf2_out_17_162_1480 (protein)
# chain: AALEAELAKLEAELKKLEKKLKELKEKTKNLEKMSKEELTDLLVEASEARREALELAERIRALEPLIGAERAGKLKEEAEKIAEELQKIANKIYKELEKK
# B19: traf2_out_9_108_2584 (protein)
# chain: MSEEEKLDEIFEKVKELALEFLKEVDLSPELREDLEKAIEQAEKLYKEGLKETAIILLAIDLATIASKVGDEVVEEVLERLKEIDPRAYAAARRRVELLK
# B20: traf2_out_17_35_1757 (protein)
# chain: SAEEEALRKALSEAHDKADAEADALRAKLEAAAADPAAFEKTFNAVVEELEKRANNPTALAYIEAAKEARAAGDRDAAIAALERAIRAIILSEKYKEVNA
# B21: traf2_out_6_156_2408 (protein)
# chain: MVEKIKEEALKKIKKYIEELSKASEEKKIKYISKIAGTVYKALQKLLEAGASLEEIKEFAKEILEEIEKYLKEAGLDEKTINLVLSSLTAVFNVAIEEAK
# B22: traf2_out_17_178_1739 (protein)
# chain: SKEELLKKISELADKRLDVSKDAMDTIKARLEAEGVLTPELAAKLDEVAKNSNLYAFEEVANEAIARSSSKAELTALRDETVAKLRELNKEIQEAVNKLE
# B23: traf2_out_17_162_1653 (protein)
# chain: SALEERLAALRARLEELRKETERLKKLLEKIDEYSKEELSDYIVEASEVKRRAREAIQEIEALAPLLDPEEAAALRAELEKIIEEAQRIANEFLKKYEAL
# B24: traf2_out_13_95_1229 (protein)
# chain: SAEANEKLRKISNEMLDRAEAIVDALEARLAPHPETAPDLAAIRAALRNRGITQAIAVLRAAAAAHPAVAALYEAAAAELEKIRRDAGKKVAEIDKEAAA
# B25: traf2_out_20_3_2238 (protein)
# chain: EELKKKAEEALKKAEELLKEAAPLLPAEDAAALEKKLKEAKKYFETDYKDALVELSELRRAALAAAERARAAGDEDTAALLEELADEVNKAMHYVYLIIE
# B26: traf2_out_20_3_2066 (protein)
# chain: KELEEELKKELEKAIALLKEAAKAADEETAKKLKELIKRLKASEELSYEDRLVELSEIRRELLELAEKAKKEGKEELAALLEKAADALNKAMQLTYEIIE
# B27: traf2_out_20_3_2171 (protein)
# chain: SELEKELKEEKEKALKILKEAAKAADKETAKKIKELIKRLKESEELSVDDRLVEVSEIRREVLELAEAARKAGDEKLAKLLEEAAEALNRAAQLLYKISQ
# B28: traf2_out_13_95_1154 (protein)
# chain: SKELAEKIMEIADKMLDKSKEILKELLEIAKKKGKLEEEVQEALYLAETRSINEAIHKLKELAKKYPEFKEELEKAIKELEELKREAGKEVAKLIKEEKE
# B29: traf2_out_11_155_742 (protein)
# chain: EEKKKLLQEMNDKIMELFEKAREEALKIAKEAAEKHPEHKEEIEKKIEETKGFSYRSFILSLIELFKKLGLEEEAKKLEELLEKTQKEANEIVKETEKKL
# Molecular target: T1, TRAF2, Q12933
# Test: median log2 fold change of GCK-ALFA target abundance (FLAG IP / Myc IP barcode read proportion) (log2 ratio); each designed protein is fused to an ALFA-tag nanobody in HEK293 cells to bring the named protein to FLAG-tagged glucokinase (GCK); Myc marks an untargeted standard; higher = target protein stabilised (more abundant)
# Settings: target protein: 3xFLAG-MCP-GCK-ALFA reporter; HEK293 landing pad (RPLP)
# In short: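 Sequencing of reverse-transcribed, amplified circular RNA barcodes from anti-FLAG and anti-Myc immunoprecipitates provided the readout for an ALFA-nanobody-fused binder library recombined into HEK293 landing-pad cells. Those cells were induced with 2 μg mL^−1 doxycycline, transfected with a plasmid expressing a FLAG-tagged target and a Myc-tagged standard, and lysed after 48 h. Target abundance is the per-binder median log2 ratio of FLAG to Myc barcode read proportions. Only barcodes at a proportion of ≥10^−7 in both replicates and binders with ≥3 barcodes per replicate were kept, with a 10^−6 pseudocount added before the two replicates were pooled.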
row,Binder,median log2 fold change
1,B1,0.157
2,B2,-0.0159
3,B3,0.39
4,B4,0.276
5,B5,-0.00848
6,B6,0.138
7,B7,0.323
8,B8,0.18
9,B9,-0.17
10,B10,0.333
11,B11,0.18
12,B12,0.267
13,B13,0.274
14,B14,-0.406
15,B15,0.125
16,B16,0.317
17,B17,0.129
18,B18,0.103
19,B19,0.0923
20,B20,0.358
21,B21,-0.531
22,B22,0.236
23,B23,0.308
24,B24,0.192
25,B25,0.283
26,B26,0.154
27,B27,0.0894
28,B28,-0.148
29,B29,0.08
